Whole data set: some 110,000 compounds, median “z-score” near -0.1, cut for the highest 2% near 2. Some of the results follow. Calls of active or inactive are those of the source.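 Rule for the calls: active = z-score in the third read window above 3 or below -3; inactive = the rest.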
Molecular target: Metabotropic glutamate receptor 8 (Rattus norvegicus) (UniProt P70579)
Experiment: mGluR8 Gi/Go-coupled signaling modulation – cell-based, rat, thallium flux, HTS, primary screen (AID 488969)
Conditions: HEK293 rat mGluR8, GIRK (G protein-gated inwardly rectifying potassium channel) thallium flux, FluoZin2; at 10 µM; stronger effect = higher value; submaximal glutamate (EC20) added with thallium

UniProt P70579, sequence (P70579 whole entry, looked up): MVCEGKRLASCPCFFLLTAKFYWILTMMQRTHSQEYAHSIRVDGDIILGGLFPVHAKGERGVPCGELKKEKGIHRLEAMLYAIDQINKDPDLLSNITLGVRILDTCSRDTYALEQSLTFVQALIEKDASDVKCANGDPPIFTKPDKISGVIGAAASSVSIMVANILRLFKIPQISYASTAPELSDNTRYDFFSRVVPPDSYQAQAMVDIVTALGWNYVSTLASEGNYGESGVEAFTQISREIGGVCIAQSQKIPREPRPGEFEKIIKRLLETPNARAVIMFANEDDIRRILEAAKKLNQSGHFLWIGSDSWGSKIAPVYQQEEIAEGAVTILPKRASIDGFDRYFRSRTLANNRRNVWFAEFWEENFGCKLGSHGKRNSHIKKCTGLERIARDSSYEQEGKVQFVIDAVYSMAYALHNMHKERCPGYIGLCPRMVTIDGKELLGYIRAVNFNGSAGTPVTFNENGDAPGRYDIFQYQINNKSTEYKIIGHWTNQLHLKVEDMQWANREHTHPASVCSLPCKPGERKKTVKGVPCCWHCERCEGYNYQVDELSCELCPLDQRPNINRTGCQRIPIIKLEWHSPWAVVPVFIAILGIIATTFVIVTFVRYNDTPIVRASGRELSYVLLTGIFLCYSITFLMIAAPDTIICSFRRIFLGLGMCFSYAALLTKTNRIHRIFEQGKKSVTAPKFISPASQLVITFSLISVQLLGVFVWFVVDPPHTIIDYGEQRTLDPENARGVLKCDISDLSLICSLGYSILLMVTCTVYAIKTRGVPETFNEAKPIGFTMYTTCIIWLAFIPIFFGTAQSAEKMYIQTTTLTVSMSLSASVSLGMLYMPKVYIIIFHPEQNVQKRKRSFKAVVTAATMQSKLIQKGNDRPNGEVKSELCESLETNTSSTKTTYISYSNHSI

SMILES | z-score
COC(=O)c1ccc(NC2=CC(=O)CC(C)(C)C2)cc1 | -0.507
CC(C)(C)C(=O)Nc1nc(-c2ccc3c(c2)OCO3)cs1 | 1.07
Cc1cc2c(cc(C(=O)OCC(=O)NCc3ccco3)n2C)s1 | -0.152
CC(=O)Oc1ccc(N(C(C)=O)S(=O)(=O)c2ccc(C)c([N+](=O)[O-])c2)cc1 | -0.139
Cc1cc2c(ncn2Cc2ccccc2)c(NS(C)(=O)=O)c1C | -0.0689
O=C(Cn1nc(-c2ccc(Cl)cc2)ccc1=O)N1CCN(c2ccccc2)CC1 | -0.575
COc1ccc(NC(=O)COC(=O)C2CCC(C(C)(C)C)CC2)c([N+](=O)[O-])c1 (stereo not given) | -0.247
O=C(COc1ccccc1)NNC(=O)c1cc2ccccc2o1 | 0.0131
COc1cc(CNCCN2CCOCC2)ccc1OCc1cccc(Cl)c1 | 0.787
Cc1cc(C)n(CC(=O)N/N=C/c2ccccn2)n1 | 0.402
CCCCCC1CC(CC(=O)NC(=S)Nc2ccc([N+](=O)[O-])cc2)C(=O)O1 (stereo not given) | 0.0803
c1ccc(CN2CCN(CCCNc3ccc4nnc(-c5ccccc5)n4n3)CC2)cc1 | -1.07
CCOCCCNC(=O)C1CCC(CNS(=O)(=O)c2ccc(Cl)cc2)CC1 (stereo not given) | -0.125
COc1ccccc1NC(=O)C1CC(=O)OC1c1ccccc1 (stereo not given) | -0.583
COc1ccccc1-n1c(SCC(=O)Nc2cccc(C)c2)nc2c(c1=O)SCC2 | -0.782
C/C(=N/NS(=O)(=O)c1ccc(Br)cc1)c1ccc(C)o1 | -0.221
Cc1ccc(Oc2ccc(-c3nnc(-c4ccccc4)o3)cc2[N+](=O)[O-])cc1C | 0.687
CC(=O)c1c(O)cc(=O)n(-c2ccccc2)c1-c1cccc2ccccc12 | 0.0673
Fc1c(F)c(F)c(N=Cc2ccc3ncccc3c2)c(F)c1F | 0.201
Cc1sc2ncnc(NCc3ccco3)c2c1C | -0.47
O=Cc1cn(CCC(=O)O)nc1-c1cc2ccccc2o1 | -0.983
Cc1ccc2nc3sc(-c4nnc(-c5ccccc5[N+](=O)[O-])o4)c(N)c3cc2c1 | -0.0604

SMILES | z-score
Clc1cccc(-c2nn3c(Cn4cnc5ccccc54)nnc3s2)c1 | -0.175
N#C/C(=C/c1ccc(N2CCOCC2)o1)c1ccc(Cl)cc1 | -0.0165
Cc1ccc(Cn2c(SCC(N)=O)nc3c2c(=O)n(C)c(=O)n3C)cc1 | -0.328
CCn1nnnc1SCC(=O)c1ccc2c(c1)OCCO2 | -0.178
O=C(O)CN1CCCC1=Nc1ccccc1 | 0.264
Nc1ccccc1C(=O)Nc1cccc(C(=O)O)c1 | 0.0345
C=CCNC(=S)Nc1nc2c(cc1C(=O)OCC)CCCC2 | active: 7.76
COc1cccc(Cn2nnc(C(=O)Nc3cc(C)ccc3OC)c2N)c1 | 0.346
CS(=O)(=O)N(CC(=O)N1CCN(c2ccccc2F)CC1)C1CCCCC1 | -0.161
Cc1ccc(-c2ccc(/C=N/NC(=S)Nc3ccccc3)o2)cc1[N+](=O)[O-] | 0.442
Cc1ccc(C2SCCN2C(=O)c2ccc([N+](=O)[O-])cc2)cc1 (stereo not given) | -0.218
CCCCn1cnc2cc(NCc3ccncc3)ccc21 | 0.202
COC(=O)c1ccccc1CON1C(=O)C(C)(C)N(OCc2ccccc2C(=O)OC)C(=O)C1(C)C | -0.348
CC1CCN(c2c([N+](=O)[O-])c(=O)n(-c3ccccc3)c3ccccc23)CC1 | 0.00884
Clc1cccc(Cl)c1Cn1cnc2c(NCc3ccco3)ncnc21 | -0.832
Cc1cccc(C)c1NC(=O)N1CCC(n2c(=O)[nH]c3ccccc32)CC1 | -0.23
COCC(C)NCc1ccc(C)cc1C (stereo not given) | 0.0777
COc1ccc(C)cc1NC(=O)C(Sc1nnc(Nc2ccccc2F)s1)c1ccccc1 (stereo not given) | 0.0396
CC(=O)Nc1ccc(SCC(=O)Nc2ccccc2-c2ccccc2)cc1 | -0.153
CC(=O)c1cccc(NC(=O)CN(Cc2ccccc2)S(C)(=O)=O)c1 | 0.318
CCCCOc1cccc(NC(=O)CSc2nccn2C)c1 | -0.276
COc1cc2c(cc1OC)C1=C(C#N)CCC(=NC(=O)c3ccc(Cl)cc3)N1CC2 | -0.8

SMILES | z-score
COc1cc(C2NC(=S)NC3=C2CCc2ccccc23)cc(OC)c1OC (stereo not given) | -0.0137
COc1ccccc1NC(=O)CC(NC1CCCCC1)C(=O)O (stereo not given) | -0.177
Cc1ccc(S(=O)(=O)/N=C(\N)Nc2nc(C)c3ccc(C)cc3n2)cc1 | -0.382
Nn1c(Cc2cccc3ccccc23)nnc1SCC(=O)N1CC(=O)Nc2ccccc21 | -0.0641
CCc1ccc(OCC(=O)NC(NC(=S)Nc2ccccc2C)C(Cl)(Cl)Cl)cc1 (stereo not given) | -0.175
CCOC(=O)c1ccccc1NC(=O)COC | -0.129
O=C(O)c1ccc(-n2nnnc2SCc2ccccc2)cc1 | 0.283
O=C(Cn1cnc2c(nnn2Cc2ccc(F)cc2)c1=O)NCc1ccc2c(c1)OCO2 | 0.623
O=C(O)Cc1csc(Nc2cccc(Cl)c2)n1 | 0.819
O=C(C1CCCN(CCCc2ccccc2)C1)N1CCCCC1 (stereo not given) | -0.0624
O=C(NC(=S)Nc1ccc2oc(-c3cccnc3)nc2c1)c1cccc(Cl)c1 | 1.66
COCCn1c(-c2ccccc2)cnc1SCC(=O)Nc1cccc2ccccc12 | 0.0344
COc1ccc(OC)c(S(=O)(=O)NCc2csc(-c3ccccc3)n2)c1 | -0.245
CCOC(=O)c1ccc(S(=O)(=O)N2CCN(CC3CC=CCC3)CC2)cc1 (stereo not given) | -0.563
Cn1c(SCC(=O)Nc2nc3ccccc3s2)nnc1-c1ccccc1 | -0.0271
COc1cc(Cl)cc2c1Sc1ccccc1/C2=C/CCN(C)C | active: 3.63
Cc1[nH]n2c(=O)cc(C(C)(C)C)nc2c1-c1ccccc1 | active: 4.43
CCOC(=O)Cn1nc(/C=C/c2ccc(OC)cc2)ccc1=O | 0.115
Cc1ccc2c(c1)N(Cc1ccc3c(c1)OCO3)C(=O)C(C)O2 (stereo not given) | -0.813
Cc1cc(C)n(-c2nc3ccccc3nc2NCCc2ccccc2)n1 | -0.16
CC(NC(=O)C1CCCN(S(=O)(=O)c2cccc3nonc23)C1)c1ccccc1 (stereo not given) | -0.69
COc1ccccc1C(=O)N(Cc1cccs1)C1CCS(=O)(=O)C1 (stereo not given) | 0.129

SMILES | z-score
Cc1ccccc1/C=C/c1nc2ccccc2c(=O)n1Cc1ccccc1 | 0.365
O=C(/C=C/c1ccco1)NC(=S)Nc1cccc(-c2nc3ccccc3s2)c1 | -0.266
Cc1ccc(C(=O)n2c(=S)nc3ccccn32)cc1 | 0.0286
O=S(=O)(c1ccc(N2CCCC2)cc1)C(F)(F)F | -0.33
CC(C)(C)N(Cc1ccccc1)C(=O)CSc1nnc(CNc2ccc(F)cc2)o1 | -0.349
CC(C)C(=O)Nc1ccc(-c2nc3cccnc3o2)cc1 | 1.38
O=C(Nc1cc(C(F)(F)F)ccc1N1CCOCC1)c1cccs1 | 1.15
O=[N+]([O-])c1ccc(O)c(-c2nn[nH]n2)c1 | -0.127
Cc1ccc(-n2nnnc2C(Cl)(Cl)c2nnnn2-c2ccc(C)cc2)cc1 | -0.111
CC(=O)NS(=O)(=O)c1cccnc1Nc1ccc(Cl)c(Cl)c1 | -0.949
O=C1CCCC2=C1C(c1ccc(OS(=O)(=O)c3ccc(Cl)cc3)cc1)C1=C(CCCC1=O)O2 | -0.213
CCOc1ccccc1Oc1coc2cc(OC)ccc2c1=O | -0.0933
NS(=O)(=O)c1ccc(NC(=O)CSc2nc3ccccc3n2-c2ccccc2)cc1 | -0.079
NC(=O)c1cccnc1Nc1ccccc1Cl | -0.423
CCCCOc1cccc(OCCCC)c1C(=O)Nc1cc(C)on1 | -1.2
O=C(COC(=O)c1ccccc1Nc1ccccc1)Nc1ccccc1 | -0.35
CCSc1nnc(NC(=O)CCc2ccc(OC)cc2)s1 | -0.237
CN(C)S(=O)(=O)c1ccc(C(=O)Nc2ccc(OCC(=O)N3CCOCC3)cc2)cc1 | 0.207
CN(C)c1ccc(CNC2CC(C)(C)NC(C)(C)C2)cc1 | 1.82
C=CCSc1nc2sc3c(c2c(=O)n1CC)CCc1ccccc1-3 | 2.62
COc1ccccc1NC(=O)Cn1nnc(-c2ccccc2NC(=O)c2ccco2)n1 | -0.495
Cc1ccc(SC(CC(=O)c2ccc(C)cc2)C(=O)O)cc1 (stereo not given) | -0.0628

SMILES | z-score
COC(=O)C(C)(C(=O)OC)c1ccccc1[N+](=O)[O-] | -0.103
O=C(Nc1ncc(S(=O)(=O)c2ccc([N+](=O)[O-])cc2)s1)c1ccc2ccccc2c1 | -0.2
COc1ccc(C(=O)Nc2ccccc2C(=O)NC(Cc2ccc(O)cc2)C(=O)NNC(=O)c2ccc(C)cc2)cc1 (stereo not given) | -0.296
Cc1cc([N+](=O)[O-])ccc1NCc1cccc([N+](=O)[O-])c1 | 0.367
CCCCn1c(SCC(=O)Nc2cc(C)on2)nc2c1c(=O)n(C)c(=O)n2C | -0.247
OC(CNCc1ccc(F)cc1)(c1ccc(F)cc1)c1ccc(F)cc1 | 0.187
Nc1c(-c2ccc(Cl)cc2)cnc2ncnn12 | -0.169
O=C(OCCN1CCCCC1)c1ccc(O)cc1 | -0.24
CCCCNc1c2c(nc3c(-c4ccccc4)c(C)nn13)CCC2 | -0.294
COC(=O)CCCC(=O)Nc1c(F)c(F)c(F)c(F)c1F | 0.502
CC(=O)c1c(C)n(-c2ccc(N(C)C)cc2)c2ccc(OCC(N)=O)cc12 | -0.403
COc1ccc(CC(=O)NC2CCN(CC(=O)N3CCCc4ccccc43)CC2)cc1OC | -0.139
COC(=O)CSc1ccc2nnc(-c3ccc(OC)c(OC)c3)n2n1 | 0.916
Cc1ccc(O)c(C(=O)c2cnn(C(=O)COc3ccc(Cl)cc3)c2)c1 | -1.38
CCCNC(=O)c1ccc2snnc2c1 | -0.277
Cc1ccc2c(Cl)c(C)c(N3CCCCC3)nc2n1 | -0.583
CCOC(=O)Cc1cc(=O)n2[nH]c(-c3ccccc3)cc2n1 | -0.109
Cc1cc(/C=C(/C#N)C(=O)Nc2ccccc2)c(C)n1-c1cccnc1 | 0.0336
COc1ccc(NC(=O)c2cncc(Br)c2)cc1S(=O)(=O)N1CCCCC1 | 0.355
CCCNNC(=O)C(O)(c1cccc(C)c1)c1cccc(C)c1 | -0.586
Cc1cc2cc(C(c3nnnn3C3CCCC3)N(Cc3cccnc3)Cc3ccco3)c(=O)[nH]c2cc1C (stereo not given) | -0.172
CCN(CC)c1ccc(NC(=O)CSc2nnc3nc(C)cc(C)n23)cc1 | -0.0111

Source: PubChem BioAssay AID488969 (Vanderbilt High Throughput Screening Facility, 2010)
